# Where “and” joins values, the source holds several entries; their conditions need not be identical. Equal entries are not always repeated. Screen size: about 420,000 compounds; about 50,000 (12%) were called active. Inconclusive means that the source gave no clear call. Such entries were picked first, then a sample of the others. Calls come from the whole dose curve; as a rule, active = well fitted inhibition curve with a large enough effect; inconclusive = small, poorly fitted or top-dose-only effect; inactive = flat fitted curve, though single readings scatter. Potencies of inconclusive entries are doubtful fits and often do not repeat.
# Experiment: qHTS for Inhibitors of human tyrosyl-DNA phosphodiesterase 1 (TDP1): qHTS in cells in presence of CPT; note: nearly all actives have a fitted effect of over 55% in size
# Conditions: chicken DT40 Tdp1-/-;hTDP1 cells + 20 nM CPT, ATP luminescence, 48 h; activity change, negative = growth inhibition: at 46.2 µM (top of the series) unless noted
# How it was run: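 Chicken DT40 Tdp1-/- cells stably complemented with human TDP1 were seeded at 400 cells/well in medium containing 20 nM camptothecin, exposed to pin-transferred compounds, and grown at 37 °C for at least 48 hr. Viability was read as ATP luminescence.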
# % is set by controls: 0 for no effect and ±100 for the full control effect; potency is the fitted concentration of half-maximal effect; tags give direction and shape of the fitted curve.
Compound,Potency,"activity change, negative = growth inhibition"
CCCn1c(=O)sc2cc(NC(=O)c3ccccc3Cl)ccc21,active: 20.6 µM,
Cc1ccc(-c2nc3ccccn3c2NCc2ccc3c(c2)OCO3)cc1,active: 20.6 µM,
N[C@@H](CS(=O)O)C(=O)O,inactive,
CCn1c(Cn2nnc(-c3ccccc3)n2)nnc1SCC(=O)Nc1cccc(C)c1C,,inconclusive: -30.3% [inhibitor]
CN(CC1CCCN(CCc2cccc(C(F)(F)F)c2)C1)C(=O)c1ccc2nc[nH]c2c1 (stereo not given),"inconclusive: 29.1 µM [inhibitor, single point]",
CCOC(=O)c1cc(-c2ccccc2)n(CC(=O)Nc2cccc(OC)c2)c1C,"inconclusive: 18.4 µM [inhibitor, partial curve, poor fit]",
COc1cccc(N2CCN(C(=O)c3cccn3-c3nnc(N4CCCCC4)s3)CC2)c1,active: 14.6 µM,
CCOc1ccc2nc(NS(=O)(=O)c3cccs3)sc2c1,,inactive: 2.77%
S=C(NCc1ccccc1)Nc1nccs1,active: 5.17 µM,
COC(=O)c1ccc(CS(=O)(=O)c2ccc(C)cc2)cc1,"inconclusive: 16.4 µM [inhibitor, single point]",
O=C(CC1CCCCC1)Nc1ccc(-c2ccc3nncn3n2)cc1,"inconclusive: 16.4 µM [inhibitor, partial curve]",
Oc1ccc(Br)cc1-c1cc(-c2ccccc2)n[nH]1,"inconclusive: 29.1 µM [inhibitor, partial curve, poor fit]",
CCC1CCCCN1CCCNC(=O)c1cn(C)c2ccc(S(=O)(=O)N(C)C3CCCCC3)cc2c1=O (stereo not given),"inactive and inconclusive: 23.1 µM [inhibitor, single point]",
CCCCCC(=O)NC(=S)NNC(=O)c1ccc([N+](=O)[O-])cc1,"inconclusive: 29.1 µM [inhibitor, single point]",
CC(C)(C)C(=O)COC(=O)C1CC(=O)N(c2ccccc2)C1 (stereo not given),,inactive: -11.2%
CC(C)c1ccc(NC(=O)C2CC2c2ccccc2)cc1 (stereo not given),"inconclusive: 23.1 µM [inhibitor, single point]",
Oc1ccc(N=Nc2n[nH]c(-c3ccc(Cl)cc3)n2)cc1,"inconclusive: 18.4 µM [inhibitor, single point]",
COc1cccc(C(=O)N[C@@H](CCSC)c2nc3ccccc3[nH]2)c1,"inconclusive: 25.9 µM [inhibitor, single point]",
Cc1ccc(S(=O)(=O)Nc2c(NC3CCCCC3)c3ccccc3oc2=O)cc1,"inconclusive: 0.259 µM [inhibitor, partial curve, poor fit]",
C#C[C@]1(O)CCC2C3CCC4=C(CCC(=O)C4)C3CC[C@@]21C (stereo not given in full),"inconclusive: 29.1 µM [inhibitor, single point]",
COCCNC(=O)c1ccc(-n2c(SCc3ccncc3)nc3ccccc3c2=O)cc1,,inactive: -8.28%
COc1ccc(C(=O)NN=C(Cc2ccccc2)Cc2ccccc2)cc1OC,"inconclusive: 14.6 µM [inhibitor, single point]",
Cc1cccc(N(CC(=O)NCc2ccco2)C(=O)CCC(=O)Nc2ccccn2)c1C,,inactive: -25.4%

Compound,Potency,"activity change, negative = growth inhibition"
ON=C1c2ccccc2-c2ccccc21,,inactive: -26.9%
CCc1nc2ccc(C(=O)N(CC)CCN(C)C)cn2c1N(C=O)CCC(C)C,"inconclusive: 18.4 µM [inhibitor, single point]",
COc1cc(/C=C(/C#N)c2nc(-c3cc4ccccc4oc3=O)cs2)ccc1O,,inactive: -1.65%
CCNc1nc(SCCOc2ccc(Cl)cc2Cl)nc(N(C)C)n1,"inconclusive: 20.6 µM [inhibitor, single point]",
Cc1sc2nc(C(C)C)nc(SCC(=O)N3c4ccccc4CC3C)c2c1C (stereo not given),"inconclusive: 16.4 µM [inhibitor, single point]",
COc1cc(NC(=S)NCCC(c2ccccc2)c2ccccc2)c(OC)cc1Cl,active: 9.2 µM,
COc1cccc(C=Nc2cccc3c(=O)[nH][nH]c(=O)c23)c1O,,inactive: -15.4%
CCCCCCn1c(CN2CCN(C(=O)OCC)CC2)nc2c1c(=O)n(C)c(=O)n2C,active: 20.6 µM,
Cc1cccc(NC(=O)c2cccc(S(=O)(=O)N3CCc4ccccc4C3)c2)n1,"inconclusive: 29.1 µM [inhibitor, single point]",
Cc1cccc(NC(=O)CSc2nc3c([nH]c4ccccc43)c(=O)n2-c2cc(C)cc(C)c2)c1,"inconclusive: 18.4 µM [inhibitor, single point]",
CC(C)(C)S(=O)N1Cc2cc(CO)cc(CCO)c2[C@@H]1CCO (stereo not given in full),,inactive: 0.9%
O=C(Oc1cccc(NC2=NS(=O)(=O)c3ccccc32)c1)c1cccnc1,"inconclusive: 4.11 µM [inhibitor, single point]",
COc1ccc(Br)cc1CN(C)C(=O)C1CC(=O)N(C2CCCC2)C1 (stereo not given),"inconclusive: 29.1 µM [inhibitor, single point]",
Cc1ccc(/C=C/C(=O)c2ccccc(=O)c2O)cc1C,active: 23.1 µM,
O=C(O)c1ccc(/C=N/Nc2nc3ccccc3[nH]2)cc1,,inactive: -1.73%
O=C(c1cccc(S(=O)(=O)N2CCCC2)c1)N1CCN(S(=O)(=O)c2cccc(Cl)c2)CC1,"inconclusive: 29.1 µM [inhibitor, single point]",
CC(C)(C)OC(=O)NCCCCCNC(=O)c1nc[nH]c1C(=O)N1CCN(C(=O)OC(C)(C)C)CC1,"inconclusive: 29.1 µM [inhibitor, single point]",
COc1cc2c(c(OC)c1OC)-c1c(cc(OC)c(OC)c1OC)C[C@H](C)[C@H](C)C2,"inconclusive: 29.1 µM [inhibitor, single point]",
COc1ccc(C2=NOC(Cn3nc(C(=O)NCc4ccc(C)cc4)cc3-c3ccccc3)C2)cc1 (stereo not given),"inconclusive: 23.1 µM [inhibitor, single point]",
CCOC(=O)C1=C(CN2CCC(C)CC2)NC(=O)NC1c1ccc(OC(C)C)cc1 (stereo not given),active: 23.1 µM,
Cc1ccc(CSCCNC(=O)c2cccc([N+](=O)[O-])c2)cc1,"inconclusive: 29.1 µM [inhibitor, single point]",
COc1ccc(NC(=O)C(c2ccccc2F)n2c(=O)c(-c3ccco3)nc3ccccc32)cc1 (stereo not given),"inconclusive: 23.1 µM [inhibitor, single point]",
